From PubChem BioAssay AID2060624 (Molecular Pharmacology Branch, DTP, NCI, 2025)
A number of entries come with more than one value. Only these are listed. The source may hold further records. The records of an entry repeat one measurement in other runs, samples, wells, individuals or studies.

Tested on: 217524-143-R1-J4-PDC spheroids with HUVEC/MSC, viability
Experiment: Anticancer human tumor 217524-143-R1-J4-PDC patient-derived pancreatic carcinoma cell line growth inhibition [CLK]
Settings: compound alone 0.0316 µM; stronger effect = lower value
Text: A high-throughput screen of multi-cell type tumor spheroids was designed to identify active combinations of […] and targeted small molecules. Complex spheroids include a stromal component modeled by human endothelial cells (HUVEC) and fibroblasts modeled by human mesenchymal stem cells (MSCs). The concentration ranges selected for each drug and investigational agent were based upon clinically achievable concentrations if the clinical Cmax of the agent was known.
Compounds. The drugs and investigational agents: cirtuvivint (SM08502; NSC835563), CC-671 (NSC850746), vemurafenib (NSC761431), tapotoclax (NSC804041), sotorasib (NSC818433), adagrasib (NSC831453), MRTX-1133 (NSC836407), BAY2416964 (NSC825713), copanlisib (NSC816437), inavolisib (NSC800729), abemaciclib (NSC768073), osimertinib (NSC779217), entinostat (NSC756642), eltanexor (KPT-8602, NSC794443), venetoclax (NSC766270), ceralasertib (NSC777638), bortezomib (NSC756655), olaparib (NSC753686), talazoparib (NSC767125), alisertib (NSC759677), peposertib (NSC802822), gemcitabine (NSC613327), 5-fluorouracil (NSC19893), SN-38 (NSC673596), oxaliplatin (NSC266046), paclitaxel (NSC125973), and doxorubicin (NSC123127), were obtained from the National Cancer Institute (NCI) Developmental Therapeutics Program Chemical Repository. […] If the clinical Cmax for an agent had not been determined, the highest concentration tested was 10 microM. […]
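Also: spheroids exposed to agents for seven days before reading; 100% = DMSO vehicle control viability.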

`CN1CCN(c2cc(C(=O)Nc3cc4cc(-c5cnn(C)c5)ccc4cn3)ccn2)CC1` was tested, and the viability, T/C was 65.4, 61.4, 78.2, 78.5, 71, 81.2, 76.5, 93.4, 90.9, 75, 77.5, 87.3%.
